The other results are listed elsewhere or left out.
B1: chr15:64957256:64957357:+|3pUTR|ENSG00000166839|msi1|total|mutant (ssRNA)
RNA: GGGAGUUCUACAGUCCGACGAUCGCUGGAAAAUUGAAACAUAAUUUCACAAUUAUUCCUUUUUCCACCUUAAAUAAUAAGAGCCGAAUACUUUCUGUGUUUUUAUCUUAUACACAUGAAUAAAUGCUAUGGCUUAUCACAGUUCAACAGAGGAUUGAGCAUCA
B2: chr7:108149816:108149915:-|CDS_3pUTR|ENSG00000091129|msi1_unk|FALSE|overlapping (ssRNA)
RNA: GGGAGUUCUACAGUCCGACGAUCGUCAACGCCAUGAAUUCCUUUGUUUAAUUUUUAAGCUCUUUGCCAAUAUUCCAUUUCUCUAGAAUGUUUAUCCUAAGCACUUGUUUGUCAGCCCUCUCAUACUAUGAACAUAUGGGUAGACAACAGAGGAUUGAGCAUCA
B3: chr3:196828865:196828966:+|3pUTR|ENSG00000180370|msi1|FALSE|bound_elsewhere (ssRNA)
RNA: GGGAGUUCUACAGUCCGACGAUCUGCUCCUUUUGAGUUGCUUUUGCGUUUCUCAUGCCUAGGCAAGUGUAAUAGAAAUUAUGUAGCUCCUUAUGUUGGCAAAGGAGCUCUAUAUAGUUUCACUUUGUAUAAAAGUUAGGACCACAACAGAGGAUUGAGCAUCA
B4: chr4:2179307:2179465:-|CDS|ENSG00000130997|control|control|control (ssRNA)
RNA: GGGAGUUCUACAGUCCGACGAUCCAGAAUUGCUGCAUGGCUUAUAGAUCCUAGUGAUGCCACACCCUCUUUUGAAGAUUUAGUAGAAAAAUACUGUGAAAAAUCCAUUACAGUUAAAGUGAACAGCACAUAUGGAAAUUCCUCCAACAGAGGAUUGAGCAUCA
B5: chr4:73571549:73576234:-|three_prime_utr|ENSG00000169435|control|control|control (ssRNA)
RNA: GGGAGUUCUACAGUCCGACGAUCUUGAUGAAUGCAUAAGUUCUGUACUUGCAUUUAUACGAACAUAUAUGAGACUUGAAUCGUAGAAAAUUGAAUGUCAAAAAAAGCUCAUUUCUUUUUGAAGUGAUGAGGUUAAUUAGGGUUCAACAGAGGAUUGAGCAUCA
B6: chr10:119917856:119917957:+|CDS|ENSG00000107651|unk|FALSE|unique (ssRNA)
RNA: GGGAGUUCUACAGUCCGACGAUCUAAGAAAAUCACUUUGCCAAGUAUUGGUCGAUUUCGUCACUUUACCAAUGAAACUUUGCUAGAUAUUUUAUUUUAUAACAGCCCCACCUACUGUCAGACAAUUGUGGAAAAAGUAGGAAUCAACAGAGGAUUGAGCAUCA
B7: chr20:5938399:5938502:-|3pUTR|ENSG00000089195|unk|total|mutant (ssRNA)
RNA: GGGAGUUCUACAGUCCGACGAUCGUCUGACUCUUAACCCUUUUGAGAAUUGCUCUGAAUUUUGUUCUCAGGCAUUAUACAGUCCGUAAUUAAACUUUAAAUGCCAUUACUACUUGUUUUUUCAUAUCCCAAGAAUAAGAACAUCAACAGAGGAUUGAGCAUCA
B8: chr3:7579146:7579247:+|CDS|ENSG00000196277|unk|total|mutant (ssRNA)
RNA: GGGAGUUCUACAGUCCGACGAUCGCCAGAGGGGUUCUCAAGUGUGACAUUACAGAUCUCCAAAUCAUUUGCUCCUUGGGAUACCGCAUUCUUCUCAUGGUCACAUGUACUGUGUAUGCCAUCAAGACUCGGGGUGUACCCGAGCAACAGAGGAUUGAGCAUCA
B9: ENSG00000110492:stop:overlap|stop_codon|ENSG00000110492|stop_codon|NA|stop_codon (ssRNA)
RNA: GGGAGUUCUACAGUCCGACGAUCAGCCCUGCACCCCCAAGACCAAAGCAAAGGCCAAAGCCAAGAAAGGGAAGGGAAAGGACUAGACGCCAAGCCUGGAUGCCAAGGAGCCCCUGGUGUCACAUGGGGCCUGGCCCACGCCCUCAACAGAGGAUUGAGCAUCA
B10: ENSG00000118515:stop:overlap|stop_codon|ENSG00000118515|stop_codon|NA|stop_codon (ssRNA)
RNA: GGGAGUUCUACAGUCCGACGAUCCUUCUGAGGAAGACCUAGAAUUGUGGUCUUUGUUAGCUCAUUAUGUUAUUUUUUUAAAGUAGGCUUUAUAUUUUAGAGCAGCUUUAAGUUCACAGCAACAUUGAGCAGAAGGUACAGAGACAACAGAGGAUUGAGCAUCA
B11: chr15:40903593:40903694:+|3pUTR|ENSG00000104142|msi1|total|mutant (ssRNA)
RNA: GGGAGUUCUACAGUCCGACGAUCCAGCCGAGGCCCUUCACCUGGAGAAGUCAGAAAUCUGACCCAAUUCCACCCCCUGCCUCCCGCACCUCUUCUGUCCCUGUCAUUCCCCACACACGUCCUGUUCACCUCGAGAGAGAGAGACAACAGAGGAUUGAGCAUCA
B12: chr13:29511929:29512034:-|3pUTR|ENSG00000139514|msi1_unk|total|mutant (ssRNA)
RNA: GGGAGUUCUACAGUCCGACGAUCUAUCAUAUCCCUCAUUUCUUUCCCUGAAAUAAAAAUACACACAAGCAAAAAAAAAAUGACCGUUUCACAUCUCUCCGUUCCCUUGCCCAAACAAGAAUAUUCUCCGUUCCACUGGCCAGGCAACAGAGGAUUGAGCAUCA
B13: chr9:34635388:34635489:-|3pUTR|ENSG00000147955|msi1|FALSE|unique (ssRNA)
RNA: GGGAGUUCUACAGUCCGACGAUCGGGAUAUCCAUGCUUAUGUAUCCAAACACAGAGACCCAUGGGAACAAAUGAGACACAUAUAGAUACUGAGACCUGUGUGUACAGUAGGACCAUGCACUCACACCCAUCUGGAGAGGGAGCCAACAGAGGAUUGAGCAUCA
B14: chr7:29923496:29923595:-|3pUTR|ENSG00000136193|msi1_unk|FALSE|overlapping (ssRNA)
RNA: GGGAGUUCUACAGUCCGACGAUCUCACAGUGCCGAGUUGGCGGGAAAAGCAAAUUCUUUUGAAGUCUUAGUCUUUCCCUCAGUAGCGGUUUCUUUCAGGUUAACAAGAGGCAUUUGUGCACACACACAGGGCUCUUGUGUGUGCAACAGAGGAUUGAGCAUCA

These binders were tested against MSI1 full-length (mouse, UniProt Q61474 1-362) (assay: nsRBNS (natural sequence RNA bind-n-seq); RBNS binding buffer (assumed for nsRBNS): 25 mM Tris pH 7.5, 150 mM KCl, 3 mM MgCl2, 0.01% Triton X-100, 500 ug/ml BSA, 20 U/ml SUPERase-In, 4 C; UNK is unkempt and MSI1 is Musashi-1; names of the RNAs are library labels; protein concentration not given here; high values mean tight binding).
Sequence of UniProt Q61474 (Q61474 whole entry): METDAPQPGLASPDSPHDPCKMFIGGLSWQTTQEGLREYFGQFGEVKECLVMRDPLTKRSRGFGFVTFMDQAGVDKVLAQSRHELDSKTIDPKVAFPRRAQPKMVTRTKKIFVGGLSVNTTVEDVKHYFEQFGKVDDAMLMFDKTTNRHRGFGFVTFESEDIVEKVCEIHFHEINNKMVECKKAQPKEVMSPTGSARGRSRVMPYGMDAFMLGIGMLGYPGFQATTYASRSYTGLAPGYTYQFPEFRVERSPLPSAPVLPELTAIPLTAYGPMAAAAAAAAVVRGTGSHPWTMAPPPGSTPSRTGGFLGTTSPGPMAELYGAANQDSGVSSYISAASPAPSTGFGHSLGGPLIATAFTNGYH

| Binder | binding signal |
| --- | --- |
| B1 | 0.616 enrichment R |
| B2 | 2.44 enrichment R |
| B3 | 0.789 enrichment R |
| B4 | 5.41 enrichment R |
| B5 | 0.408 enrichment R |
| B6 | 3.39 enrichment R |
| B7 | 1.22 enrichment R |
| B8 | 0.324 enrichment R |
| B9 | 0.51 enrichment R |
| B10 | 0.687 enrichment R |
| B11 | 0.587 enrichment R |
| B12 | 0.638 enrichment R |
| B13 | 0.728 enrichment R |
| B14 | 0.341 enrichment R |

From article PMC12136788
